Source: article PMC6664820, “Novel natural and synthetic inhibitors of solute carriers SGLT1 and SGLT2” (Pharmacology Research & Perspectives, 2019)
Among all 1,900 compounds or so, about 40 (2%) showed an effect of 50% or more. Some of the results follow.

target: human SGLT1 (hSGLT1) (human, UniProt P13866); experiment: primary screen, percent of control activity; higher = less effect of the substance; set-up: single well; conditions: 50 µM
Description: Two days before the assay, CHO‐wild type and CHO‐hSGLT1 cells were seeded in maintenance medium at 25 000 cells/well in clear‐bottom black 96‐well cell culture plates. Before the assay, cells were washed 3 times with 150 μL/well D‐glucose free DMEM with 0.3% (w/v) BSA. Library compounds at 50 μmol/L (singlicate) prepared in D‐glucose free DMEM with 160 μmol/L 1‐NBD‐glucose and 0.3% (w/v) BSA and negative controls (triplicate) were added at 100 μL/well and placed in a humidified incubator at 37°C with 5% CO2 for 90 minutes. Next, cells were washed 3 times with DMEM with 0.3% (w/v) BSA (150 μL/well). Care was taken to remove all medium after the last wash. Finally, 1‐NBD‐glucose was extracted from the cells by adding 10 μL/well isopropanol and orbital shaking for 5 minutes at 600 rpm, followed by incubation in the dark for 30 minutes. Fluorescence was measured on a Tecan Infinite M200 Microplate Reader (Tecan, Männedorf, Switzerland) with excitation at 445 nm and emission at 525 nm. The amount of 1‐NBD‐glucose taken up by the CHO‐wild type or CHO‐hSGLT1 cells in the presence or absence of test compounds was interpolated from 1‐NBD‐glucose calibration standards. The background uptake by CHO‐wild type was subtracted from the uptake by CHO‐hSGLT1. Background corrected uptake with test compound was expressed as a percentage of corrected uptake without test compound.

human SGLT1 (hSGLT1), sequence (P13866 whole entry, looked up): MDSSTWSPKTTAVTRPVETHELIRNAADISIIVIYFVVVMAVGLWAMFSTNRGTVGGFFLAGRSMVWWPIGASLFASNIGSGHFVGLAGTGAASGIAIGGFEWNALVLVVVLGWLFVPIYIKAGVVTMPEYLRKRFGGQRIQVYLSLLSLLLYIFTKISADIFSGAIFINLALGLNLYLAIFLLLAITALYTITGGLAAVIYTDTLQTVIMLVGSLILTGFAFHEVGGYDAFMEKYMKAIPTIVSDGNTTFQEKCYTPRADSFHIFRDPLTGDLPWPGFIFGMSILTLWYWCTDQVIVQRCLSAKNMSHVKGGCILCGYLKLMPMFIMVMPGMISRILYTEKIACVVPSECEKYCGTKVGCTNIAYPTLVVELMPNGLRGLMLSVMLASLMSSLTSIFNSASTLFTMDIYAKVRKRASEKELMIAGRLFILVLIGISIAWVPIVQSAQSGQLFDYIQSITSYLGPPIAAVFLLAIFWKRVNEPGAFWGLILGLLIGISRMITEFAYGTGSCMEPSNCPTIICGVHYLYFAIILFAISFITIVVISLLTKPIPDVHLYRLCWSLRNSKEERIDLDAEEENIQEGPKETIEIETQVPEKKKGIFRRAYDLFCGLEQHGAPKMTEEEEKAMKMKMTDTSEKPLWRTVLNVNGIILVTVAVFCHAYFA

| SMILES | NORMALIZED SGLT1 ACTIVITY (%) |
| --- | --- |
| CC1(C)S[C@@H]2[C@H](NC(=O)Cc3ccccc3)C(=O)N2[C@H]1C(=O)[O-].[K+] | 115 |
| Cc1ccc2c(c1)CC[C@H]1CC(=O)CC[C@]21C | 113 |
| CCCCCCCCCCC[C@@H](C[C@@H]1OC(=O)[C@H]1CCCCCC)OC(=O)[C@H](CC(C)C)NC=O | 96 |
| O=[N+]([O-])c1cccc2cn[nH]c12 | 154 |
| CC[C@H]1OC(=O)[C@H](C)[C@@H](O[C@H]2C[C@@](C)(OC)[C@@H](O)[C@H](C)O2)[C@H](C)[C@@H](O[C@@H]2O[C@H](C)C[C@H](N(C)C)[C@H]2O)[C@](C)(O)C[C@@H](C)[C@@H]2N[C@@H](COCCOC)O[C@H]([C@H]2C)[C@]1(C)O | 115 |
| CC(=O)N[C@@H](CC(=O)O)C(=O)O | 100 |
| O=C1O[C@H](CO)[C@@H](O)[C@H](O)[C@H]1O | 128 |
| Cn1c(=O)c2nc(C3CCCC3)[nH]c2n(C)c1=O | 240 |
| Cn1cnc([N+](=O)[O-])c1Sc1[nH]cnc2ncnc1-2 | 96 |
| CC(C)(S)[C@@H](N)C(=O)O | 144 |
| CO[C@H]1C[C@H](O[C@H]2[C@H](C)[C@@H](O[C@@H]3O[C@H](C)C[C@H](N(C)C)[C@H]3OC(C)=O)[C@@H](C)C[C@@]3(CO3)C(=O)[C@H](C)[C@@H](OC(C)=O)[C@@H](C)[C@@H](C)OC(=O)[C@@H]2C)O[C@@H](C)[C@@H]1OC(C)=O | 119 |
| COc1cc(OC)c2c(=O)cc(-c3ccccc3)oc2c1 | 118 |
| CC(=O)NO | 99 |
| O=C(O)c1cc(-c2ccc(F)cc2F)ccc1O | 328 |
| O=C1CCO1 | 135 |
| CC(C)(Oc1ccc(Cl)cc1)C(=O)O | 144 |
| O=C(N[C@@H](Cc1ccccc1)C(=O)CCl)OCc1ccccc1 | 115 |
| CC(=O)O[C@H]1CCC2(C)C3=C(CCC2C1(C)C)[C@]1(C)CCC(C(C)CCC=C(C)C)[C@@]1(C)CC3 (stereo partly shown) | 119 |
| COC1C(O)C(O[C@H]2CC[C@]3(C=O)C4C(CC[C@]3(O)C2)[C@@]2(O)CC[C@H](C3=CC(=O)OC3)[C@@]2(C)C[C@H]4OC(C)=O)OC(C)C1OC(C)=O (stereo partly shown) | 99 |
| CCOC(=O)C1(O)Oc2cc(OC)cc(OC)c2C(=O)C1c1ccccc1 (stereo not shown) | 188 |
| CC(=O)O[C@@H]1CC2C(C)(C)C(=O)C=C[C@]2(C)C2CC[C@@]3(C)[C@H](c4ccoc4)OC(=O)[C@H]4O[C@]43[C@@]21C (stereo partly shown) | 116 |
| COc1ccc([C@H]2Oc3c(I)c(OC)cc(OC)c3C[C@@H]2O)cc1OC | 116 |

| SMILES | NORMALIZED SGLT1 ACTIVITY (%) |
| --- | --- |
| CCC1(c2ccccc2)C(=O)NCNC1=O | 116 |
| O=C(CCCN1CC=C(n2c(=O)[nH]c3ccccc32)CC1)c1ccc(F)cc1 | 131 |
| Cl.Clc1ccc(C(OCCN2CCCCC2)c2ccccc2)cc1 (stereo not shown) | 37 |
| COc1cc2c(cc1OC)C(C)NCC2 (stereo not shown) | 73 |
| Cl.NCC(=O)c1ccccc1 | 104 |
| COc1cc(C)c2c(c1C=O)Oc1c(c(C)c(O)c3c1C(O)OC3=O)OC2=O (stereo not shown) | 216 |
| CC(=O)OCC1=C(C(=O)[O-])N2C(=O)[C@@H](NC(=O)CSc3ccncc3)[C@H]2SC1.[Na+] | 84 |
| Oc1ccc(Cl)c2cccnc12 | 208 |
| COC(=O)[C@@]1(C)CCC[C@]2(C)c3ccc(O)c(C(C)C)c3CCC12 (stereo partly shown) | 138 |
| CC(CCc1ccccc1)NC(C)C(O)c1ccc(O)cc1.Cl (stereo not shown) | 99 |
| CC[C@H]1OC(=O)[C@H](C)[C@@H](O[C@H]2C[C@@](C)(OC)[C@@H](O)[C@H](C)O2)[C@H](C)[C@@H](O[C@@H]2O[C@H](C)C[C@H](N(C)C)[C@H]2O)[C@](C)(O)C[C@@H](C)C(=O)[C@H](C)[C@@H](O)[C@]1(C)O | 94 |
| C[C@@H]1CCC2[C@](C)(CO)[C@@H](O)CC[C@]2(C)[C@@]12CC[C@@](CO)(CCO)O2 (stereo partly shown) | 101 |
| CC(=O)NCCc1c[nH]c2ccc(O)cc12 | 138 |
| CNC(C)[C@@H]1CC[C@@H](N)[C@@H](OC2[C@@H](N)C[C@@H](N)[C@H](OC3OC[C@](C)(O)[C@H](NC)[C@H]3O)[C@H]2O)O1.O=S(=O)(O)O (stereo partly shown) | 95 |
| Cl.O=C1NCC2(CCN(CCc3ccccc3)CC2)O1 | 104 |
| CS(=O)(=O)OCCCCOS(C)(=O)=O | 96 |
| C[N+]1(CCCCC[N+]2(C)CCCC2)CCCC1.O=C([O-])C(O)C(O)C(=O)O.O=C([O-])C(O)C(O)C(=O)O | 111 |
| N=C(NCCC[C@H](N)C(=O)O)N[N+](=O)[O-] | 94 |
| O=c1cc(-c2ccccc2)oc2cc(O)c(O)c(O)c12 | 155 |
| CCCN(CCC)C(=O)C(CCC(=O)O)NC(=O)c1ccccc1 (stereo not shown) | 104 |
| CCCCC[C@H](CC(=O)O)C(=O)O | 154 |
